Among the data in the antibiotic and cytotoxicity screens of Wong et al. (2023) are cytotoxicity call and growth inhibition call values, retold here.

The test system of one assay is HSkMC. Description: cytotoxicity call (relative viability < 0.9). The following applies: 10 µM.
A further assay concerns HepG2. The assay can be described thus: cytotoxicity call (relative viability < 0.9). The following applies: 10 µM.
The test system of another assay is S. aureus RN4220. Description: growth inhibition call (relative growth <= 0.2). The following applies: 50 µM.

The other results are listed elsewhere or left out.

On to `C[C@@H]1CN([C@@H](C)CO)C(=O)c2cc(NC(=O)Nc3ccc(F)cc3)ccc2O[C@@H](C)CCCCO[C@H]1CN(C)Cc1ccccc1`, for which, in the assay on HSkMC, the cytotoxicity call was “inactive”. In addition, the cytotoxicity call in the assay on HepG2 was “active”. The growth inhibition call with S. aureus RN4220 is “inactive”.
For the compound `CCS(=O)(=O)N1C[C@]2(CN(C2)C(=O)Nc2c(noc2C)C)c2c([nH]c3cc(ccc23)OC)[C@H]1CO`, the cytotoxicity call with HSkMC and in the assay on HepG2 was “inactive” each time. For the same compound, the growth inhibition call in the assay with S. aureus RN4220 is “inactive”.
For the compound `Cc1noc(C)c1NC(=O)Nc1ccc2c(c1)C(=O)N([C@H](C)CO)C[C@H](C)[C@H](CN(C)Cc1ccc(Oc3ccccc3)cc1)O2`, the cytotoxicity call with HSkMC and in the assay on HepG2 was “inactive” in each case. Besides, the growth inhibition call in the assay on S. aureus RN4220 was “inactive”.
Regarding `CC(=O)Nc1c(I)c(NC(C)=O)c(I)c(C(=O)O)c1I`, the cytotoxicity call in the assay on HSkMC and with HepG2 was “inactive” throughout. In addition, in the assay with S. aureus RN4220, the growth inhibition call was “inactive”.
Turning to `C[C@H](CO)N1C[C@H](C)[C@@H](CN(C)Cc2ccccc2)Oc2c(NC(=O)C3CCOCC3)cccc2C1=O`, the cytotoxicity call in the assay with HSkMC and in the assay with HepG2 was “inactive” in each case. The growth inhibition call with S. aureus RN4220 was “inactive”.
For the compound `C[C@@H]1CN([C@H](C)CO)C(=O)c2cccc(NC(=O)c3cnccn3)c2O[C@@H]1CN(C)C(=O)Nc1ccc(F)cc1`, the cytotoxicity call with HSkMC and in the assay on HepG2 was “inactive” each time. The growth inhibition call in the assay on S. aureus RN4220 is “inactive”.
On to `C[C@@H]1CN([C@@H](C)CO)C(=O)c2cccc(NC(=O)CCCCCC(=O)Nc3ccccc3N)c2O[C@H]1CN(C)C(=O)Nc1ccccc1`, for which the cytotoxicity call in the assay with HSkMC and with HepG2 was “inactive” throughout. For the same compound, the growth inhibition call in the assay on S. aureus RN4220 was “inactive”.
On to `Cc1noc(C)c1NC(=O)N(C)C[C@@H]1Oc2ncc(C#Cc3ccccc3)cc2C(=O)N([C@H](C)CO)C[C@@H]1C`, for which the cytotoxicity call in the assay on HSkMC and in the assay with HepG2 was “inactive” throughout. For the same compound, the growth inhibition call in the assay on S. aureus RN4220 was “inactive”.
In the case of `CC(/C=C/C(=O)NO)=C\c1ccccc1OCc1cn(-c2ccc(C[C@H]3C(=O)O[C@@H](Cc4ccccc4)[C@H]4[C@@H]5C=CCCC=C5CN43)cc2)nn1`, the cytotoxicity call with HSkMC and in the assay with HepG2 was “inactive” in each case. The growth inhibition call in the assay on S. aureus RN4220 was “inactive”.
For the compound `CC1=C(C(=O)OCCN(Cc2ccccc2)c2ccccc2)[C@H](c2cccc([N+](=O)[O-])c2)C(P2(=O)OCC(C)(C)CO2)=C(C)N1`, the cytotoxicity call with HSkMC and in the assay with HepG2 was “inactive” each time. For the same compound, the growth inhibition call in the assay on S. aureus RN4220 was “inactive”.
On to `Cc1ccc(CN)cc1Cl`, for which the cytotoxicity call with HSkMC and in the assay on HepG2 was “inactive” each time. In the assay on S. aureus RN4220, the growth inhibition call is “inactive”.
Consider `C[C@H](CO)N1C[C@H](C)[C@@H](CN(C)C(=O)Nc2ccc(C(F)(F)F)cc2)OCCCC[C@H](C)Oc2ccc(NS(=O)(=O)c3ccc(Cl)cc3)cc2C1=O`, for which, in the assay on HSkMC, the cytotoxicity call is “inactive”. The cytotoxicity call in the assay with HepG2 was “active”. Besides, in the assay on S. aureus RN4220, the growth inhibition call is “inactive”.
Take `Cc1noc(C)c1NC(=O)N[C@@H]1C=C[C@@H](CC(=O)NCCCN(C)C)O[C@H]1CO`: the cytotoxicity call in the assay on HSkMC and in the assay with HepG2 was “inactive” each time. For the same compound, in the assay with S. aureus RN4220, the growth inhibition call was “inactive”.
On to `C[C@H]1CCCCO[C@@H](CN(C)S(=O)(=O)c2ccc(Cl)cc2)[C@@H](C)CN([C@@H](C)CO)C(=O)c2cc(NS(=O)(=O)c3ccc(Cl)cc3)ccc2O1`, for which the cytotoxicity call in the assay on HSkMC and with HepG2 was “inactive” throughout. The growth inhibition call with S. aureus RN4220 was “inactive”.
For `C[C@@H]1CN([C@@H](C)CO)C(=O)c2cccc(NC(=O)Nc3cccc4ccccc34)c2O[C@H]1CN(C)S(=O)(=O)c1ccc(F)cc1`, the cytotoxicity call in the assay on HSkMC and in the assay on HepG2 was “inactive” throughout. In addition, in the assay with S. aureus RN4220, the growth inhibition call is “inactive”.
Turning to `C[C@@H]1CN([C@H](C)CO)C(=O)c2cc(-c3cncnc3)cnc2O[C@H]1CN(C)C(=O)CN1CCOCC1`, the cytotoxicity call in the assay with HSkMC and in the assay on HepG2 was “inactive” in each case. In the assay on S. aureus RN4220, the growth inhibition call was “inactive”.
`O=C1c2ccc3c4c(ccc(c24)C(=O)N1CCCCO)C(=O)N(CCCCO)C3=O`: the cytotoxicity call in the assay on HSkMC and with HepG2 was “active” each time. Further, in the assay on S. aureus RN4220, the growth inhibition call was “inactive”.
For `CSc1ccc2c(c1)N(CCC1CCCCN1C)c1ccccc1S2.Cl` (stereo unspecified), the cytotoxicity call in the assay with HSkMC is “inactive”. In addition, the cytotoxicity call in the assay with HepG2 was “active”. Also, the growth inhibition call with S. aureus RN4220 is “inactive”.
As to `Cc1ccc(S(=O)(=O)Nc2ccc3c(c2)CC(=O)N([C@H](C)CO)C[C@H](C)[C@@H](CN(C)Cc2ccc(Oc4ccccc4)cc2)O3)cc1`, the cytotoxicity call in the assay on HSkMC and in the assay with HepG2 was “inactive” each time. Moreover, the growth inhibition call with S. aureus RN4220 was “inactive”.
`C[C@@H]1CN([C@H](C)CO)C(=O)c2cc(NS(C)(=O)=O)ccc2O[C@H]1CN(C)Cc1ccc(C(F)(F)F)cc1`: the cytotoxicity call in the assay with HSkMC and in the assay with HepG2 was “inactive” each time. For the same compound, the growth inhibition call with S. aureus RN4220 is “inactive”.
Regarding `CNC[C@H]1Oc2ccc(NC(=O)CCN3CCOCC3)cc2CC(=O)N([C@@H](C)CO)C[C@@H]1C`, the cytotoxicity call in the assay with HSkMC and in the assay with HepG2 was “inactive” each time. For the same compound, the growth inhibition call with S. aureus RN4220 was “inactive”.
Turning to `C[C@H](C(=O)N(C)C[C@H]1OCc2ccccc2-c2c(n(C)c3ccccc23)C(=O)N([C@H](C)CO)C[C@H]1C)c1ccccc1`, the cytotoxicity call in the assay on HSkMC and in the assay on HepG2 was “inactive” in each case. The growth inhibition call in the assay with S. aureus RN4220 was “inactive”.
For the compound `C[C@@H]1CN([C@H](C)CO)C(=O)c2cccc(NC(=O)C3CCOCC3)c2O[C@H]1CN(C)S(=O)(=O)c1cccs1`, the cytotoxicity call in the assay with HSkMC and in the assay on HepG2 was “inactive” each time. Further, the growth inhibition call in the assay with S. aureus RN4220 was “inactive”.
Turning to `CNC(=O)c1ccc(CN)cc1`, the cytotoxicity call in the assay with HSkMC and in the assay on HepG2 was “inactive” throughout. In addition, the growth inhibition call in the assay on S. aureus RN4220 is “inactive”.
As for `C[C@@H]1CCCCO[C@@H](CN(C)Cc2ccccc2)[C@@H](C)CN([C@H](C)CO)C(=O)c2cc(NC(=O)C3CCCCC3)ccc2O1`, the cytotoxicity call in the assay with HSkMC and in the assay with HepG2 was “inactive” in each case. Also, the growth inhibition call in the assay with S. aureus RN4220 is “inactive”.
`O=C1O[C@@H](c2ccccc2)[C@@H](c2ccccc2)N2[C@@H](c3ccc(O)cc3)[C@]3(C(=O)Nc4ccccc43)[C@@H](C(=O)NC[C@H](O)c3ccccc3)[C@H]12`: the cytotoxicity call in the assay with HSkMC and in the assay with HepG2 was “inactive” throughout. Moreover, the growth inhibition call in the assay with S. aureus RN4220 was “inactive”.
Regarding `CC(C)(C)OC(=O)N1CCNC(=O)C1`, the cytotoxicity call in the assay on HSkMC (human skeletal muscle cells) and in the assay on HepG2 was “inactive” each time. For the same compound, the growth inhibition call in the assay on S. aureus RN4220 was “inactive”.
